# Source: PubChem BioAssay AID504706 (National Center for Advancing Translational Sciences (NCATS), 2011)
# About 200 (0.062%) of roughly 320,000 compounds were called active. This list was built around the results that the source calls inconclusive (neither active nor inactive); the mix of calls is not that of the screen. The call rests on the fitted dose curve; in most records, active means well fitted activation curve with a large enough effect; inconclusive means small, poorly fitted or top-dose-only effect; inactive means no such curve, though single readings can be large or run the other way. Potencies of inconclusive entries are left out as doubtful fits.
# Assay: qHTS assay for re-activators of p53 using a Luc reporter; further: nearly all actives have a fitted effect of over 45% in size
# Conditions: H1299 p53-A138V BP100-luciferase reporter, luminescence, 24 h; series mostly up to 92.2 µM
# In short: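 p53-null H1299 cells stably carrying temperature-sensitive p53-A138V and a BP100-luciferase reporter were pinned with compounds (4-point, 1:5 series) and held 24 hrs at 37 deg C. Luminescence was read 10 min after detection reagent.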
# Potency means the concentration at half of the fitted maximal effect; tags describe the fitted curve by direction and shape.
row,Compound,Potency
1,O=C(NC(=S)NC12CC3CC(CC(C3)C1)C2)c1ccc(F)cc1,"inconclusive [activator, full curve, poor fit]"
2,COc1ccc(-c2nnc(SCC(=O)N3CCCCC3)o2)c(OC)c1,"inconclusive [activator, full curve, poor fit]"
3,CCC(=O)c1ccc(-c2ccccc2)cc1,"inconclusive [activator, full curve, poor fit]"
4,Cc1ccccc1OCc1nc2c3cnn(C)c3ncn2n1,"inconclusive [activator, full curve, poor fit]"
5,CC(=O)Nc1ccc(/C(C)=N/Nc2nc(Nc3ccccc3)nc(N3CCOCC3)n2)cc1,inactive
6,Cc1ccn2c(NC(=O)c3ccccc3)c(-c3cccs3)nc2c1,inactive
7,COc1ccc(Oc2ccc(/C=C/C(=O)c3cccc(OC)c3)cc2[N+](=O)[O-])cc1,inactive
8,CN=Cc1nc(-c2ccccc2)oc1O,"inconclusive [activator, full curve, poor fit]"
9,Cc1ccc(NC(=S)c2ccccc2)cc1,"inconclusive [activator, full curve, poor fit]"
10,C=CCN(CC=C)Cc1c(C)[nH]c2ccc(C(=O)OCC)cc2c1=O,inactive
11,Cc1cc(C)nc(SCc2ccc(C(=O)N/N=C/c3cccc(O)c3O)cc2)n1,"inconclusive [activator, partial curve, poor fit]"
12,COc1ccc(NC(=O)C23CC4CC(C2)CC(c2ccc(C)cc2)(C4)C3)cc1,"inconclusive [activator, single point]"
13,COc1ccc(CNC(=O)c2ccc3oc(C(C)C)nc3c2)cc1,"inconclusive [activator, partial curve, poor fit]"
14,Cc1ccc(NC(=O)c2cc(C)n(-c3cccc(C)c3)c2C)cc1,"inconclusive [activator, partial curve, poor fit]"
15,CCOC(=O)c1c(C)nsc1NC(=O)C1CCCCC1,inactive
16,COc1ccc(-c2c(-c3cc(OC)cc(OC)c3)n(C)c3ccc(-c4ccc(S(N)(=O)=O)cc4)cc23)cc1,inactive
17,COc1ccc(C)cc1NC(=O)c1ccc2c(SCC(=O)O)c3c(nc2c1)CCCC3,inactive
18,O=c1oc2ccccc2cc1-c1nc2c(s1)CCc1ccccc1-2,"inconclusive [activator, partial curve, poor fit]"
19,O=C(Cc1c(F)cccc1Cl)c1ccc(O)cc1O,"inconclusive [activator, single point]"
20,CN(c1ccc(O)cc1)c1nc(-c2ccccc2)cs1,"inconclusive [activator, partial curve, poor fit]"
21,CC1(C)CC(NC(=O)c2ccc(Cl)cc2)CC(C)(C)N1,"inconclusive [activator, partial curve, poor fit]"
22,O=C(COc1cccnc1[N+](=O)[O-])Nc1ccc(F)cc1,"inconclusive [activator, partial curve, poor fit]"
23,CCN(CC)c1ccc(N=Cc2ccccc2[N+](=O)[O-])cc1,"inconclusive [activator, partial curve]"

row,Compound,Potency
1,CC(=O)N1CCN(c2nc(CC(C)C)c3c(c2C#N)CCC3)CC1,inactive
2,Cc1cccc(NC(=O)CN2C(=O)S/C(=C\c3ccc(O)c([N+](=O)[O-])c3)C2=O)c1,inactive
3,COc1ccc(Nc2nc(=O)c3cc([N+](=O)[O-])ccc3s2)cc1,inactive
4,Cc1cccc(NC2=C(NCCO)C(=O)c3ccccc3C2=O)c1,inactive
5,COCCN(C(=O)C1CCN(C(=O)c2ccccc2C)CC1)c1c(N)n(CC(C)C)c(=O)[nH]c1=O,inactive
6,c1ccc(Cc2c[nH]c3ccccc23)cc1,"inconclusive [activator, partial curve, poor fit]"
7,O=C1C=C(c2ccc(-c3ccccc3)cc2)C[C@@H](c2ccc(Cl)cc2)C1,"inconclusive [activator, partial curve, poor fit]"
8,CC(NC(=O)c1c(Cl)cnn1C)C1CCCO1 (stereo not given),inactive
9,O=[N+]([O-])c1ccc2nc(-c3ccccc3)oc2c1,"inconclusive [activator, single point]"
10,COc1cccc2cc(-c3nc4ccccc4o3)c(=O)oc12,"inconclusive [activator, partial curve, poor fit]"
11,O=C(Nc1cccc2nsnc12)c1cccs1,"inconclusive [activator, partial curve, poor fit]"
12,CSc1ccccc1NC(=O)CN(C)C(=O)COc1cccc2cccnc12,inactive
13,Cc1ccc(S(=O)(=O)N2CCCC2)s1,"inconclusive [activator, partial curve, poor fit]"
14,COc1ccc2[nH]c(=O)c(CN(c3ccccc3)S(=O)(=O)c3ccccc3)cc2c1,"inconclusive [activator, single point]"
15,C(=N\NC(=Nc1ccccc1)c1ccccn1)/c1ccccn1,"inconclusive [activator, full curve, poor fit]"
16,CC(Sc1nnc2ccccn12)C(=O)Nc1ncc(Cl)cc1Cl (stereo not given),"inconclusive [activator, partial curve, poor fit]"
17,Cc1[nH]c2ccccc2c1C(=O)CSC(=S)N(C)C1CCCCC1,"inconclusive [activator, single point]"
18,C[n+]1ccc(C(=O)NCc2ccccc2)cc1,"inconclusive [activator, single point]"
19,CC(=O)N1c2ccc(S(=O)(=O)NCCC(=O)NCCc3cccc(C)c3)cc2CC1C (stereo not given),inactive
20,O=C(Nc1ccc2c(c1)OCO2)c1c(F)cccc1F,"inconclusive [activator, partial curve, poor fit]"
21,O=C1Nc2ccccc2N(O)N1c1cc(-c2ccc(Cl)cc2)[nH]n1,inactive
22,COc1ccc(OCc2cc(C(=O)N3CCN(C4CCCC4)CC3)no2)c(Cl)c1,"inconclusive [activator, partial curve, poor fit]"
